# Results reported in the supplement of paper PMC8728848.
# The list shows a part of the results.
# Tests used:
# Experiment in all cases: glycan array binding signal (z-score within array); higher = stronger binding
# Conditions in all cases: glycan notation: IUPAC condensed, linker removed
# [1] = target: Gal(b1-3)[Fuc(a1-4)]GlcNAc(b1-2)Man(a1-3)[Gal(b1-3)[Fuc(a1-4)]GlcNAc(b1-2)Man(a1-6)]Man(b1-4)GlcNAc(b1-4)GlcNAc
# In short: (§1)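 Arrays were curated from the Consortium for Functional Glycomics database, 3228 in total, and kept only where the protein sequence was available. Binding is expressed as a within-array Z-score. This score was averaged across arrays of the same protein sequence at different concentrations or buffers and across linkers, and negative values can be read as non-binding.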
# [2] = target: Gal(b1-3)[Fuc(a1-4)]GlcNAc(b1-2)Man(a1-3)[Gal(b1-3)[Fuc(a1-4)]GlcNAc(b1-2)Man(a1-6)]Man(b1-4)GlcNAc(b1-4)[Fuc(a1-6)]GlcNAc
# In short: as §1
# [3] = target: Gal(b1-3)[Fuc(a1-4)]GlcNAc(b1-3)Gal(b1-3)[Fuc(a1-4)]GlcNAc
# In short: as §1
# [4] = target: Gal(b1-3)[Fuc(a1-4)]GlcNAc(b1-3)Gal(b1-4)GlcNAc
# In short: as §1
# [5] = target: Gal(b1-3)[Fuc(a1-4)]GlcNAc(b1-3)Gal(b1-4)[Fuc(a1-3)]GlcNAc
# In short: as §1
# [6] = target: Gal(b1-3)[GlcNAc(b1-6)]GalNAc
# In short: as §1
# [7] = target: Gal(b1-3)[Neu5Ac(a2-6)]GalNAc
# In short: as §1
# [8] = target: Gal(b1-3)[Neu5Ac(a2-6)]GlcNAc(b1-6)Gal(b1-4)Glc
# In short: as §1
# [9] = target: Gal(b1-3)[Neu5Ac(b2-6)]GalNAc
# In short: as §1
# [10] = target: Gal(b1-4)GalNAc(a1-3)[Fuc(a1-2)]Gal(b1-4)GlcNAc
# In short: as §1
# [11] = target: Gal(b1-4)GalNAc(b1-3)[Fuc(a1-2)]Gal(b1-4)GlcNAc
# In short: as §1
# [12] = target: Gal(b1-4)Glc
# In short: as §1
# [13] = target: Gal(b1-4)Glc6S
# In short: as §1
# [14] = target: Gal(b1-4)GlcNAc
# In short: as §1
# [15] = target: Gal(b1-4)GlcNAc(a1-6)Gal(b1-4)GlcNAc
# In short: as §1
# [16] = target: Gal(b1-4)GlcNAc(b1-2)Man(a1-3)Man(b1-4)GlcNAc(b1-4)GlcNAc
# In short: as §1
# [17] = target: Gal(b1-4)GlcNAc(b1-2)Man(a1-3)[Gal(b1-4)GlcNAc(b1-2)Man(a1-6)]Man(b1-4)GlcNAc(b1-4)GlcNAc
# In short: as §1
# [18] = target: Gal(b1-4)GlcNAc(b1-2)Man(a1-3)[Gal(b1-4)GlcNAc(b1-2)Man(a1-6)]Man(b1-4)GlcNAc(b1-4)[Fuc(a1-6)]GlcNAc
# In short: as §1
# [19] = target: Gal(b1-4)GlcNAc(b1-2)Man(a1-3)[Man(a1-6)]Man(b1-4)GlcNAc(b1-4)GlcNAc
# In short: as §1
# [20] = target: Gal(b1-4)GlcNAc(b1-2)Man(a1-6)Man(b1-4)GlcNAc(b1-4)GlcNAc
# In short: as §1
# [21] = target: Gal(b1-4)GlcNAc(b1-2)Man(a1-6)[Man(a1-3)]Man(b1-4)GlcNAc(b1-4)GlcNAc
# In short: as §1
# [22] = target: Gal(b1-4)GlcNAc(b1-2)[Gal(b1-4)GlcNAc(b1-4)]Man(a1-3)[Gal(b1-4)GlcNAc(b1-2)Man(a1-6)]Man(b1-4)GlcNAc(b1-4)GlcNAc
# In short: as §1
# [23] = target: Gal(b1-4)GlcNAc(b1-3)Gal(b1-3)GlcNAc
# In short: as §1
# [24] = target: Gal(b1-4)GlcNAc(b1-3)Gal(b1-4)Glc
# In short: as §1
# [25] = target: Gal(b1-4)GlcNAc(b1-3)Gal(b1-4)GlcNAc
# In short: as §1
# [26] = target: Gal(b1-4)GlcNAc(b1-3)Gal(b1-4)GlcNAc(b1-3)Gal(b1-4)GlcNAc
# In short: as §1
# [27] = target: Gal(b1-4)GlcNAc(b1-3)Gal(b1-4)[Fuc(a1-3)]GlcNAc(b1-3)Gal(b1-4)[Fuc(a1-3)]GlcNAc
# In short: as §1
# [28] = target: Gal(b1-4)GlcNAc(b1-3)GalNAc
# In short: as §1
# [29] = target: Gal(b1-4)GlcNAc(b1-3)[Gal(b1-4)GlcNAc(b1-6)]Gal(b1-4)GlcNAc
# In short: as §1
# [30] = target: Gal(b1-4)GlcNAc(b1-3)[GlcNAc(b1-6)]Gal(b1-4)GlcNAc
# In short: as §1
# [31] = target: Gal(b1-4)GlcNAc(b1-6)Gal(b1-4)GlcNAc
# In short: as §1
# [32] = target: Gal(b1-4)GlcNAc(b1-6)Gal(b1-4)GlcNAc(b1-6)GalNAc
# In short: as §1
# [33] = target: Gal(b1-4)GlcNAc(b1-6)GalNAc
# In short: as §1
# [34] = target: Gal(b1-4)GlcNAc(b1-6)[Gal(b1-3)]GalNAc
# In short: as §1
# [35] = target: Gal3S(b1-3)GalNAc
# In short: as §1
# [36] = target: Gal3S(b1-3)GlcNAc
# In short: as §1
# [37] = target: Gal3S(b1-3)[Fuc(a1-4)]GlcNAc
# In short: as §1
# [38] = target: Gal3S(b1-4)Glc
# In short: as §1
# [39] = target: Gal3S(b1-4)Glc6S
# In short: as §1
# [40] = target: Gal3S(b1-4)GlcNAc
# In short: as §1
# [41] = target: Gal3S(b1-4)GlcNAc6S
# In short: as §1
# [42] = target: Gal3S(b1-4)[Fuc(a1-3)]Glc
# In short: as §1
# [43] = target: Gal3S4S(b1-4)GlcNAc
# In short: as §1
# [44] = target: Gal3S6S(b1-4)GlcNAc
# In short: as §1
# [45] = target: Gal3S6S(b1-4)GlcNAc6S
# In short: as §1
# [46] = target: Gal4S(b1-4)GlcNAc
# In short: as §1
# [47] = target: Gal4S6S(b1-4)GlcNAc
# In short: as §1
# [48] = target: Gal6S(b1-4)Glc
# In short: as §1
# [49] = target: Gal6S(b1-4)Glc6S
# In short: as §1
# [50] = target: Gal6S(b1-4)GlcNAc
# In short: as §1
# [51] = target: Gal6S(b1-4)GlcNAc6S
# In short: as §1
# [52] = target: GalNAc(a1-3)Gal
# In short: as §1
# [53] = target: GalNAc(a1-3)GalNAc
# In short: as §1
# [54] = target: GalNAc(b1-3)Gal
# In short: as §1
# [55] = target: GalNAc(b1-3)Gal(a1-4)Gal(b1-4)GlcNAc
# In short: as §1
# [56] = target: GalNAc(b1-3)Gal(a1-4)Gal(b1-4)GlcNAc(b1-3)Gal(b1-4)Glc
# In short: as §1
# [57] = target: GalNAc(b1-3)GalNAc
# In short: as §1
# [58] = target: GalNAc(b1-4)GlcNAc
# In short: as §1
# [59] = target: GalNAc(b1-4)GlcNAc(b1-2)Man(a1-3)[GalNAc(b1-4)GlcNAc(b1-2)Man(a1-6)]Man(b1-4)GlcNAc(b1-4)GlcNAc
# In short: as §1
# [60] = target: Glc(a1-4)Glc
# In short: as §1
binder,measurement,setting,value
"Neuropilin-1 (Rattus norvegicus), Q9QWJ9 (protein) MERGLPLLCATLALALALAGAFRSDKCGGTIKIENPGYLTSPGYPHSYHPSEKCEWLIQAPEPYQRIMINFNPHFDLEDRDCKYDYVEVIDGENEGGRLWGKFCGKIAPSPVVSSGPFLFIKFVSDYETHGAGFSIRYEIFKRGPECSQNYTAPTGVIKSPGFPEKYPNSLECTYIIFAPKMSEIILEFESFDLEQDSNPPGGVFCRYDRLEIWDGFPEVGPHIGRYCGQKTPGRIRSSSGILSMVFYTDSAIAKEGFSANYSVLQSSISEDFKCMEALGMESGEIHSDQITASSQYGTNWSVERSRLNYPENGWTPGEDSYREWIQVDLGLLRFVTAVGTQGAISKETKKKYYVKTYRVDISSNGEDWITLKEGNKAIIFQGNTNPTDVVFGVFPKPLITRFVRIKPASWETGISMRFEVYGCKITDYPCSGMLGMVSGLISDSQITASNQGDRNWMPENIRLVTSRTGWALPPSPHPYINEWLQVDLGDEKIVRGVIIQGGKHRENKVFMRKFKIAYSNNGSDWKMIMDDSKRKAKSFEGNNNYDTPELRAFTPLSTRFIRIYPERATHSGLGLRMELLGCEVEVPTAGPTTPNGNPVDECDDDQANCHSGTGDDFQLTGGTTVLATEKPTIIDSTIQSEFPTYGFNCEFGWGSHKTFCHWEHDSHAQLRWRVLTSKTGPIQDHTGDGNFIYSQADENQKGKVARLVSPVVYSQSSAHCMTFWYHMSGSHVGTLRVKLHYQKPEEYDQLVWMVVGHQGDHWKEGRVLLHKSLKLYQVIFEGEIGKGNLGGIAVDDISINNHIPQEDCAKPTDLDKKNTEIKIDETGSTPGYEEGKGDKNISRKPGNVLKTLDPILITIIAMSALGVLLGAVCGVVLYCACWHNGMSERNLSALENYNFELVDGVKLKKDKLNPQSNYSEA",glycan array binding signal (z-score),[1],3.3
same,glycan array binding signal (z-score),[2],2.37
same,glycan array binding signal (z-score),[3],-0.229
same,glycan array binding signal (z-score),[4],-0.294
same,glycan array binding signal (z-score),[5],-0.263
same,glycan array binding signal (z-score),[6],-0.229
same,glycan array binding signal (z-score),[7],-0.251
same,glycan array binding signal (z-score),[8],-0.262
same,glycan array binding signal (z-score),[9],-0.235
same,glycan array binding signal (z-score),[10],0.018
same,glycan array binding signal (z-score),[11],-0.204
same,glycan array binding signal (z-score),[12],-0.332
same,glycan array binding signal (z-score),[13],-0.22
same,glycan array binding signal (z-score),[14],-0.064
same,glycan array binding signal (z-score),[15],-0.104
same,glycan array binding signal (z-score),[16],-0.225
same,glycan array binding signal (z-score),[17],-0.288
same,glycan array binding signal (z-score),[18],-0.274
same,glycan array binding signal (z-score),[19],-0.02
same,glycan array binding signal (z-score),[20],-0.165
same,glycan array binding signal (z-score),[21],-0.353
same,glycan array binding signal (z-score),[22],-0.295
same,glycan array binding signal (z-score),[23],-0.323
same,glycan array binding signal (z-score),[24],-0.284
same,glycan array binding signal (z-score),[25],-0.263
same,glycan array binding signal (z-score),[26],-0.269
same,glycan array binding signal (z-score),[27],-0.201
same,glycan array binding signal (z-score),[28],-0.211
same,glycan array binding signal (z-score),[29],-0.28
same,glycan array binding signal (z-score),[30],-0.205
same,glycan array binding signal (z-score),[31],-0.253
same,glycan array binding signal (z-score),[32],-0.128
same,glycan array binding signal (z-score),[33],-0.12
same,glycan array binding signal (z-score),[34],-0.299
same,glycan array binding signal (z-score),[35],-0.455
same,glycan array binding signal (z-score),[36],-0.063
same,glycan array binding signal (z-score),[37],-0.223
same,glycan array binding signal (z-score),[38],-0.376
same,glycan array binding signal (z-score),[39],-0.212
same,glycan array binding signal (z-score),[40],-0.211
same,glycan array binding signal (z-score),[41],-0.201
same,glycan array binding signal (z-score),[42],-0.257
same,glycan array binding signal (z-score),[43],-0.43
same,glycan array binding signal (z-score),[44],-0.279
same,glycan array binding signal (z-score),[45],-0.271
same,glycan array binding signal (z-score),[46],-0.185
same,glycan array binding signal (z-score),[47],-0.1
same,glycan array binding signal (z-score),[48],-0.192
same,glycan array binding signal (z-score),[49],0.162
same,glycan array binding signal (z-score),[50],-0.348
same,glycan array binding signal (z-score),[51],-0.113
same,glycan array binding signal (z-score),[52],-0.081
same,glycan array binding signal (z-score),[53],-0.161
same,glycan array binding signal (z-score),[54],-0.31
same,glycan array binding signal (z-score),[55],-0.33
same,glycan array binding signal (z-score),[56],-0.285
same,glycan array binding signal (z-score),[57],-0.27
same,glycan array binding signal (z-score),[58],-0.273
same,glycan array binding signal (z-score),[59],1.98
same,glycan array binding signal (z-score),[60],-0.289
